Assay results published in publication PMC12820563.
The other results are listed elsewhere or left out. The list includes weakly bound sequences.

Molecular target: T1, MBP-FoxP3dN (UniProt Q99JB6)
T1 sequence: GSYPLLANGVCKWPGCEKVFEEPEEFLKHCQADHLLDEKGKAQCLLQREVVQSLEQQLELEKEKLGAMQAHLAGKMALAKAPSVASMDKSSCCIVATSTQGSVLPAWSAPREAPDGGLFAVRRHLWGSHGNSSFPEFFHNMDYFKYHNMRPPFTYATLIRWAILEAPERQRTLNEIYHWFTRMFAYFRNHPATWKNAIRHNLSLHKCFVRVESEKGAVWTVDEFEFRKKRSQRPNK
Test: PD-seq (MBP pull-down with sequencing)
Details: 20 mM Tris-HCl pH 7.5, 100 mM NaCl, 1.5 mM MgCl2, 0.4 uM protein, 0.1 uM dsDNA library, 30 min, room temperature, amylose pull-down; high values mean tight binding; double strand, one strand shown

| Sequence | binding signal (RPM ratio (pull-down/input)) |
| --- | --- |
| GATGATTGTTCTCCCAGCTGATGAATTGTATAGCTCGAGTAAACAAATTTTCCTAATCTTTCTGTTCAAGCGCCATCTAC | 1.05 |
| GATGATTGTTCTCCCAGCTGATGAATTTCAGCTGTCGAGTAAACAAATTTTCCTAATCTTTCTGTTCAAGCGCCATCTAC | 0.363 |
| GATGATTGTTCTCCCAGCTGATGAATTCGTACCTTCGAGTAAACAAATTTTCCTAATCTTTCTGTTCAAGCGCCATCTAC | 0.484 |
| GATGATTGTTCTCCCAGCTGATGAATTAAAGGCATCGAGTAAACAAATTTTCCTAATCTTTCTGTTCAAGCGCCATCTAC | 0.92 |
| GATGATTGTTCTCCCAGCTGATGAATTGCCAAAATCGAGTAAACAAATTTTCCTAATCTTTCTGTTCAAGCGCCATCTAC | 0.373 |
| GATGATTGTTCTCCCAGCTGATGAATTCTATCTATCGAGTAAACAAATTTTCCTAATCTTTCTGTTCAAGCGCCATCTAC | 0.774 |
| GATGATTGTTCTCCCAGCTGATGAATTCTCCGGCTCGAGTAAACAAATTTTCCTAATCTTTCTGTTCAAGCGCCATCTAC | 0.153 |
| GATGATTGTTCTCCCAGCTGATGAATTCTGAAACTCGAGTAAACAAATTTTCCTAATCTTTCTGTTCAAGCGCCATCTAC | 0.72 |
| GATGATTGTTCTCCCAGCTGATGAATTGCAGTCATCGAGTAAACAAATTTTCCTAATCTTTCTGTTCAAGCGCCATCTAC | 1.13 |
| GATGATTGTTCTCCCAGCTGATGAATTAAGTGACTCGAGTAAACAAATTTTCCTAATCTTTCTGTTCAAGCGCCATCTAC | 0.991 |
| GATGATTGTTCTCCCAGCTGATGAATTCTCGTTGTCGAGTAAACAAATTTTCCTAATCTTTCTGTTCAAGCGCCATCTAC | 0.561 |
| GATGATTGTTCTCCCAGCTGATGAATTCGTGCTGTCGAGTAAACAAATTTTCCTAATCTTTCTGTTCAAGCGCCATCTAC | 0.615 |
| GATGATTGTTCTCCCAGCTGATGAATTCCAATGCTCGAGTAAACAAATTTTCCTAATCTTTCTGTTCAAGCGCCATCTAC | 0.531 |
| GATGATTGTTCTCCCAGCTGATGAATTATCTGGGTCGAGTAAACAAATTTTCCTAATCTTTCTGTTCAAGCGCCATCTAC | 0.194 |
| GATGATTGTTCTCCCAGCTGATGAATTCATAACGTCGAGTAAACAAATTTTCCTAATCTTTCTGTTCAAGCGCCATCTAC | 0.394 |
| GATGATTGTTCTCCCAGCTGATGAATTGGACGCCTCGAGTAAACAAATTTTCCTAATCTTTCTGTTCAAGCGCCATCTAC | 0.645 |
| GATGATTGTTCTCCCAGCTGATGAATTTCGGTGGTCGAGTAAACAAATTTTCCTAATCTTTCTGTTCAAGCGCCATCTAC | 0.448 |
| GATGATTGTTCTCCCAGCTGATGAATTTCAAAGCTCGAGTAAACAAATTTTCCTAATCTTTCTGTTCAAGCGCCATCTAC | 0.231 |
| GATGATTGTTCTCCCAGCTGATGAATTGGGAAACTCGAGTAAACAAATTTTCCTAATCTTTCTGTTCAAGCGCCATCTAC | 0.614 |
| GATGATTGTTCTCCCAGCTGATGAATTCAAATATTCGAGTAAACAAATTTTCCTAATCTTTCTGTTCAAGCGCCATCTAC | 0.431 |
| GATGATTGTTCTCCCAGCTGATGAATTTCATATATCGAGTAAACAAATTTTCCTAATCTTTCTGTTCAAGCGCCATCTAC | 0.715 |

| Sequence | binding signal (RPM ratio (pull-down/input)) |
| --- | --- |
| GATGATTGTTCTCCCAGCTGATGAATTCTATTGATCGAGTAAACAAATTTTCCTAATCTTTCTGTTCAAGCGCCATCTAC | 4.86 |
| GATGATTGTTCTCCCAGCTGATGAATTACAGTTTTCGAGTAAACAAATTTTCCTAATCTTTCTGTTCAAGCGCCATCTAC | 0.719 |
| GATGATTGTTCTCCCAGCTGATGAATTCGGAATTTCGAGTAAACAAATTTTCCTAATCTTTCTGTTCAAGCGCCATCTAC | 1.28 |
| GATGATTGTTCTCCCAGCTGATGAATTAGGTGCGTCGAGTAAACAAATTTTCCTAATCTTTCTGTTCAAGCGCCATCTAC | 1.02 |
| GATGATTGTTCTCCCAGCTGATGAATTATCCGCATCGAGTAAACAAATTTTCCTAATCTTTCTGTTCAAGCGCCATCTAC | 0.979 |
| GATGATTGTTCTCCCAGCTGATGAATTCCCCGCATCGAGTAAACAAATTTTCCTAATCTTTCTGTTCAAGCGCCATCTAC | 0.735 |
| GATGATTGTTCTCCCAGCTGATGAATTCCAGGCATCGAGTAAACAAATTTTCCTAATCTTTCTGTTCAAGCGCCATCTAC | 0.578 |
| GATGATTGTTCTCCCAGCTGATGAATTCCCAGTTTCGAGTAAACAAATTTTCCTAATCTTTCTGTTCAAGCGCCATCTAC | 0.263 |
| GATGATTGTTCTCCCAGCTGATGAATTAGTACCCTCGAGTAAACAAATTTTCCTAATCTTTCTGTTCAAGCGCCATCTAC | 0.735 |
| GATGATTGTTCTCCCAGCTGATGAATTTACGCTCTCGAGTAAACAAATTTTCCTAATCTTTCTGTTCAAGCGCCATCTAC | 0.7 |
| GATGATTGTTCTCCCAGCTGATGAATTTGTATGTTCGAGTAAACAAATTTTCCTAATCTTTCTGTTCAAGCGCCATCTAC | 6.63 |
| GATGATTGTTCTCCCAGCTGATGAATTGTCTCCGTCGAGTAAACAAATTTTCCTAATCTTTCTGTTCAAGCGCCATCTAC | 0.318 |
| GATGATTGTTCTCCCAGCTGATGAATTTTTCAAGTCGAGTAAACAAATTTTCCTAATCTTTCTGTTCAAGCGCCATCTAC | 0.207 |
| GATGATTGTTCTCCCAGCTGATGAATTTGAGGCCTCGAGTAAACAAATTTTCCTAATCTTTCTGTTCAAGCGCCATCTAC | 0.709 |
| GATGATTGTTCTCCCAGCTGATGAATTACACGACTCGAGTAAACAAATTTTCCTAATCTTTCTGTTCAAGCGCCATCTAC | 0.417 |
| GATGATTGTTCTCCCAGCTGATGAATTGAGGTGCTCGAGTAAACAAATTTTCCTAATCTTTCTGTTCAAGCGCCATCTAC | 0.488 |
| GATGATTGTTCTCCCAGCTGATGAATTAGTGTCCTCGAGTAAACAAATTTTCCTAATCTTTCTGTTCAAGCGCCATCTAC | 2.09 |
| GATGATTGTTCTCCCAGCTGATGAATTAGTGAGCTCGAGTAAACAAATTTTCCTAATCTTTCTGTTCAAGCGCCATCTAC | 0.85 |
| GATGATTGTTCTCCCAGCTGATGAATTTTATGTTTCGAGTAAACAAATTTTCCTAATCTTTCTGTTCAAGCGCCATCTAC | 2.25 |
| GATGATTGTTCTCCCAGCTGATGAATTCCGTACATCGAGTAAACAAATTTTCCTAATCTTTCTGTTCAAGCGCCATCTAC | 0.592 |
| GATGATTGTTCTCCCAGCTGATGAATTGGTTGGATCGAGTAAACAAATTTTCCTAATCTTTCTGTTCAAGCGCCATCTAC | 0.551 |

| Sequence | binding signal (RPM ratio (pull-down/input)) |
| --- | --- |
| GATGATTGTTCTCCCAGCTGATGAATTAACCGTCTCGAGTAAACAAATTTTCCTAATCTTTCTGTTCAAGCGCCATCTAC | 0.326 |
| GATGATTGTTCTCCCAGCTGATGAATTGCCGAGTTCGAGTAAACAAATTTTCCTAATCTTTCTGTTCAAGCGCCATCTAC | 0.608 |
| GATGATTGTTCTCCCAGCTGATGAATTAGATATGTCGAGTAAACAAATTTTCCTAATCTTTCTGTTCAAGCGCCATCTAC | 1.29 |
| GATGATTGTTCTCCCAGCTGATGAATTGTTCGCCTCGAGTAAACAAATTTTCCTAATCTTTCTGTTCAAGCGCCATCTAC | 0.653 |
| GATGATTGTTCTCCCAGCTGATGAATTTACTCATTCGAGTAAACAAATTTTCCTAATCTTTCTGTTCAAGCGCCATCTAC | 0.518 |
| GATGATTGTTCTCCCAGCTGATGAATTTGCATTCTCGAGTAAACAAATTTTCCTAATCTTTCTGTTCAAGCGCCATCTAC | 6.29 |
| GATGATTGTTCTCCCAGCTGATGAATTTCAAGCTTCGAGTAAACAAATTTTCCTAATCTTTCTGTTCAAGCGCCATCTAC | 0.258 |
| GATGATTGTTCTCCCAGCTGATGAATTTCGGGATTCGAGTAAACAAATTTTCCTAATCTTTCTGTTCAAGCGCCATCTAC | 0.36 |
| GATGATTGTTCTCCCAGCTGATGAATTTGGACCCTCGAGTAAACAAATTTTCCTAATCTTTCTGTTCAAGCGCCATCTAC | 0.478 |
| GATGATTGTTCTCCCAGCTGATGAATTAAGCACCTCGAGTAAACAAATTTTCCTAATCTTTCTGTTCAAGCGCCATCTAC | 0.986 |
| GATGATTGTTCTCCCAGCTGATGAATTAACTACATCGAGTAAACAAATTTTCCTAATCTTTCTGTTCAAGCGCCATCTAC | 0.461 |
| GATGATTGTTCTCCCAGCTGATGAATTAGCGATGTCGAGTAAACAAATTTTCCTAATCTTTCTGTTCAAGCGCCATCTAC | 0.61 |
| GATGATTGTTCTCCCAGCTGATGAATTACATAGATCGAGTAAACAAATTTTCCTAATCTTTCTGTTCAAGCGCCATCTAC | 0.393 |
| GATGATTGTTCTCCCAGCTGATGAATTCCTCCCATCGAGTAAACAAATTTTCCTAATCTTTCTGTTCAAGCGCCATCTAC | 0.273 |
| GATGATTGTTCTCCCAGCTGATGAATTTAACTTGTCGAGTAAACAAATTTTCCTAATCTTTCTGTTCAAGCGCCATCTAC | 0.475 |
| GATGATTGTTCTCCCAGCTGATGAATTTCCTATTTCGAGTAAACAAATTTTCCTAATCTTTCTGTTCAAGCGCCATCTAC | 0.293 |
| GATGATTGTTCTCCCAGCTGATGAATTCGATTGATCGAGTAAACAAATTTTCCTAATCTTTCTGTTCAAGCGCCATCTAC | 1.17 |
| GATGATTGTTCTCCCAGCTGATGAATTGAAGAGTTCGAGTAAACAAATTTTCCTAATCTTTCTGTTCAAGCGCCATCTAC | 0.363 |
| GATGATTGTTCTCCCAGCTGATGAATTACGCCGCTCGAGTAAACAAATTTTCCTAATCTTTCTGTTCAAGCGCCATCTAC | 1.9 |
| GATGATTGTTCTCCCAGCTGATGAATTCCAAATGTCGAGTAAACAAATTTTCCTAATCTTTCTGTTCAAGCGCCATCTAC | 0.315 |
| GATGATTGTTCTCCCAGCTGATGAATTATTTATTTCGAGTAAACAAATTTTCCTAATCTTTCTGTTCAAGCGCCATCTAC | 2.74 |
